Reference: PubChem BioAssay AID2546 (National Center for Advancing Translational Sciences (NCATS), 2010)
The campaign covered roughly 310,000 compounds. About 11,000 (3.5%) were called active. The shares of active, inactive and inconclusive entries below differ from those in the screen. Calls follow the shape of the dose curve; as a rule, active = well fitted inhibition curve with a large enough effect; inconclusive = small, poorly fitted or top-dose-only effect, or effect the other way; inactive = flat fitted curve, though single readings scatter. No potency is given beside an inconclusive call; the fits are too rough.

Experiment: VP16 counterscreen qHTS for inhibitors of ROR gamma transcriptional activity;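 also: Gal4-VP16 expression switched on by copper sulfate through the metallothionein promoter; nearly all actives have a fitted effect of over 50% in size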
Conditions: Drosophila S2 Gal4-VP16 UAS-luciferase, luminescence, 20 h; activity, negative = inhibition: at 53.6 µM (top of the series)
% is scaled to controls: 0 for no effect and ±100 for the full control effect; potency is read from the fitted curve at half-maximal effect; tags tell the direction and shape of the fitted curve.

Structure (SMILES)	Potency	activity, negative = inhibition
CC(C)(C)c1ccc(C(=O)Nc2sc3c(c2C(=O)O)CCC3)cc1	inconclusive [inhibitor, single point]	
COc1ccc(C(=O)N2CCC3(CCCN(C(c4ccccc4)c4ccccc4)C3)CC2)cc1	inconclusive [inhibitor, single point]	
CC(C)c1cc(C(=O)NNC(=S)NCc2ccco2)c(O)c(C(C)C)c1	inconclusive [inhibitor, partial curve, poor fit]	
O=C(/C(=C/O)N=Nc1ccccc1)c1ccco1		inactive: -19.2%
CCCCOc1cc(C(=O)OCCN(CC)CC)ccc1N		inactive: -4.15% [at 17 µM]
COc1ccc(S(=O)(=O)O/N=C2\CCSc3ccc(C)cc32)cc1	inconclusive [inhibitor, single point]	
CC(=O)N1CCc2cc(S(=O)(=O)N3CCc4ccccc43)ccc21	active: 12.6 µM	
Cn1c2c(c(=O)n(C)c1=O)[C@@]1(C(=O)Nc3ccccc31)C(C#N)=C(N)O2	inconclusive [inhibitor, single point]	
O=C(Oc1ccc(OC(=O)c2ccco2)c(S(=O)(=O)c2ccc(Cl)cc2)c1)c1ccco1	inconclusive [inhibitor, single point]	
CCCCN(C)CCn1c(=S)[nH]c2cc(OCC)c(OCC)cc2c1=O	inconclusive [inhibitor, partial curve, poor fit]	
CC1=NN(C(=O)Cc2ccc([N+](=O)[O-])cc2)C(O)(C(F)(F)C(F)(F)F)C1 (stereo not given)	active: 5.01 µM	
O=C(Nc1nc(-c2cccs2)c(C(=O)C(F)(F)F)s1)c1ccco1		inactive: -0.0103%
Cc1nn(-c2ccccc2)cc1/C=N/NC(N)=S	active: 4.47 µM	
O=C(Cc1ccccc1Cl)Nc1nc2ccccc2[nH]1	inconclusive [inhibitor, single point]	
CC(C)(C)C(=O)NCCN1C(=O)S/C(=C\c2ccc([N+](=O)[O-])cc2)C1=O	inconclusive [inhibitor, single point]	
COc1ccc(Cl)c(Cn2c(NCC(C)O)nc3c2c(=O)n(C)c(=O)n3C)c1 (stereo not given)	inconclusive [inhibitor, single point]	
Cc1c(CN(C)C(=O)c2sc3cc(Cl)ccc3c2Cl)cnn1C	inconclusive [inhibitor, single point]	
Cc1c(NS(=O)(=O)c2cc(Br)cc3c2N(C(=O)C2CC2)CC3)c(=O)n(-c2ccccc2)n1C		inactive: 4.59%
CCOc1cc(C)c(S(=O)(=O)NC2CCCCC2)cc1C	active: 11.2 µM	
CC1C/C(=N\Nc2ccc(S(N)(=O)=O)cc2[N+](=O)[O-])CC(C)(C)C1 (stereo not given)	inconclusive [inhibitor, single point]	
CCN(CC)S(=O)(=O)c1ccc(C)c(NC(=S)Nc2cccc(S(=O)(=O)N3CCCCCC3)c2)c1	inconclusive [inhibitor, single point]	
CC1=CC(C)(C)NC(=S)N1c1cccc(C)c1	active: 11.2 µM	
Cc1cc(C)n(CCNC(=O)c2ccc3c(c2)OCO3)n1		inactive: 2.6%
O=C(Cc1c[nH]c2ccccc12)Nc1nc2ccccc2[nH]1	inconclusive [inhibitor, single point]	
O=C(O)c1ccc(-c2nc(-c3ccccc3Cl)cs2)cc1	inconclusive [inhibitor, single point]	

Structure (SMILES)	Potency	activity, negative = inhibition
CCC1CCCCN1Cc1nc2c(c(=O)n(C)c(=O)n2C)n1CC(C)C (stereo not given)		inactive: -2.7%
CCCCN(CC)c1nc(C)nc2c1c(C)c(C)n2-c1c(C)cc(C)cc1C	inconclusive [inhibitor, single point]	
CC1=NN(c2ccccc2)C(=O)/C1=C/C=C/c1ccccc1	active: 17.8 µM	
Cc1cccc(C)c1OCc1nc2ccccc2c(=O)n1/N=C/c1ccc(OCC(=O)O)cc1	inconclusive [inhibitor, single point]	
COc1ccc(Br)c(-c2nc(CS(=O)(=O)c3ccc(F)cc3)no2)c1	inconclusive [inhibitor, partial curve]	
CN1/C(=C\C(=O)C[n+]2ccc3ccccc3c2)C(C)(C)c2ccccc21	inconclusive [inhibitor, single point]	
COc1ccc(NC(=O)CC2SC(=Nc3ccccc3)NC2=O)cc1 (stereo not given)	inconclusive [inhibitor, partial curve]	
CCNC(=O)COc1ccc(OCc2ccccc2)cc1	inconclusive [activator, single point]	
O=C(CCCN1C(=O)/C(=C\c2cccs2)SC1=S)Nc1ccc(O)cc1C(=O)O	active: 5.62 µM	
N/C(=N\NC(=O)c1ccccc1Cl)c1cc2ccccc2oc1=O	inconclusive [inhibitor, single point]	
S=C1Nc2cc(Cl)ccc2Sc2ccccc21	inconclusive [inhibitor, full curve, poor fit]	
CCOCc1nnc(NC(=O)C2CCN(C(=O)C3CC(=O)N(c4ccc(C)cc4)C3)CC2)s1 (stereo not given)		inactive: 1.4%
COC(=O)c1c(NC(=O)COc2ccc(Cl)cc2Cl)sc2c1CC(C)(C)NC2(C)C	active: 22.4 µM	
CC(NCc1ccc(S(N)(=O)=O)cc1)C(=O)Nc1ccc([N+](=O)[O-])cc1Cl (stereo not given)		inactive: -5.17%
COc1c(Cl)cc(Cl)cc1CNCCNCC(C)O (stereo not given)	inconclusive [inhibitor, single point]	
CCOc1ccc(NC(=S)N(CCN2CCOCC2)Cc2cc3cc4c(cc3[nH]c2=O)OCCO4)cc1		inactive: 1.25%
COc1ccc(SCCN2CCN(CCc3ccccc3)CCC2=O)cc1	inconclusive [inhibitor, single point]	
CC(=O)Nc1c(I)cc(I)c(C(=O)O)c1I		inactive: 3.08%
C#CCNC(=O)C1=C[C@H](c2coc3ccccc3c2=O)[C@@H](CCCO)[C@H](OCC)O1		inactive: -11.3%
Cn1cccc1C(=O)NC(=O)COC(=O)C12CC3CC(CC(O)(C3)C1)C2	inconclusive [inhibitor, single point]	
Cc1cc(=O)[nH]c(N/N=C/c2c(C)nn(-c3ccc(F)cc3)c2Cl)n1		inactive: -7.37%
CN(c1ccccc1)S(=O)(=O)c1ccc(C(=O)Nc2nnc(-c3ccco3)o2)cc1	active: 1.12 µM	
CC(=O)Nc1nnc(S(N)(=O)=O)s1	inactive	
COc1ccc(OC)c(NC(=O)NCCc2cccc(Cl)c2)c1	inconclusive [inhibitor, single point]	
COc1ccc(CN(CC2CCC(C(=O)O)CC2)C(=S)Nc2ccccc2C)cc1 (stereo not given)	inconclusive [activator, single point]	

Structure (SMILES)	Potency	activity, negative = inhibition
Cc1ccc2nc3ccc(N4CCN(C)CC4)nn3c(=O)c2c1	inconclusive [inhibitor, single point]	
COc1ccc(-c2nn(-c3ccccc3)cc2/C=C/C(=O)NCCCn2ccnc2)cc1OC		inactive: -5.33%
O=[N+]([O-])/C=C1\C=CC=CN1Cc1ccc(Cl)cc1		inactive: 0.854%
CCc1nnc(NC(=O)CSc2nc(C)c3c(c2C#N)CCCC3)s1	inconclusive [inhibitor, single point]	
COc1ccccc1C(N)=S	inconclusive [inhibitor, single point]	
CCC(=O)n1nc(NCc2ccccc2OC)nc1NCc1ccccc1OC		inactive: 16.1%
COC1=CC(=O)C(O)=C/C1=C\C=C\c1ccccc1	active: 12.6 µM	
Cc1ccccc1-n1c(C)cc(/C=C2\NC(=O)NC2=O)c1C	inconclusive [inhibitor, full curve, poor fit]	
S=C(NCCc1ccc(Cl)cc1)NC1CCCC1	active: 6.31 µM	
CSc1nc(C)c2c(n1)N(c1ccc(C(C)C)cc1)CC2		inactive: -1.4%
O=C(Oc1ccccc1)N1CCC2(CC1)CN(c1ccccc1)C2		inactive: -17.1%
N#Cc1c(N)[nH]c(=S)c(C#N)c1-c1ccccc1	inconclusive [inhibitor, single point]	
COc1ccc(Cl)cc1NC(=O)Nc1cn(C)nc1C	inconclusive [inhibitor, single point]	
CCOC(=O)C1CCCN(C(=O)Cn2nc(C)c3c(C)n(-c4ccccc4)nc3c2=O)C1 (stereo not given)		inactive: -2.71%
CC(C)Oc1ccc2c(=O)c(-c3ccccc3)coc2c1	inconclusive [inhibitor, single point]	
CC(CN1CCOCC1)OC(=O)c1ccc(Br)cc1 (stereo not given)	inconclusive [inhibitor, single point]	
CN(C)c1nc(NCc2ccccc2)nc(N/N=C/c2ccc(Br)cc2)n1	active: 12.6 µM	
COc1ccc(-c2cn[nH]c2-c2ccc(OCc3ccc([N+](=O)[O-])cc3)cc2O)cc1OC	inconclusive [inhibitor, single point]	
Oc1ccc(-c2cn3cc(C(F)(F)F)ccc3n2)cc1	active: 8.91 µM	
CCn1c2ccc(C)cc2c2nc3cc(C(=O)O)ccc3nc21	inconclusive [inhibitor, single point]	
O=c1[nH]c(CN2CCN(c3ncccn3)CC2)nc2c(Br)cc(Br)cc12		inactive: -5.18%
CCCOc1ccc(N2C(=O)CC(N3CCOCC3)C2=O)cc1 (stereo not given)	inconclusive [inhibitor, single point]	
O=S(=O)(c1ccc(N2CCN(S(=O)(=O)c3ccc4c(c3)OCCO4)CC2)nc1)N1CCCC1		inactive: 10.4%
Cc1cccc(NC(=O)C2(c3ccccc3)CC2(Cl)Cl)c1 (stereo not given)		inactive: 0.372%
CNC(=S)NNC(=O)c1sccc1OCc1ccc(Cl)cc1Cl	inconclusive [inhibitor, single point]	
